The RNAGym collection of RNA variant scans (doi:10.7554/elife.90254)
Read counts are not given, so values of variants with three or more changes are uncertain.

B1: OR4K15 (parent)
chain: GUUAACGGUCAUAGGCCAUGGAAACUAGGAGCACCAUUUCGCUGCCAGUGAAGAAAUGAACAAAGAAAAUCUGGGCCAGGCAGGCAUCAAAAGAAAUAGUCUUGCGCUCAACCAGAAAGUCUGUAAUCAUUUUAAGGGUA

Variants of: B1
Assay: self-cleavage, relative activity (ratio to wild type); higher = more cleavage; in vitro, sequencing; the parent is a self-cleaving ribozyme

| Variant | self-cleavage |
| --- | --- |
| G8A U9A U12G U108G A125G | 0.03 |
| A51G A98G U100C U124C | 0.55 |
| A27G A55G C71U A114U U120C | 0.02 |
| A62G A68G A96G | 2.31 |
| A51G A52G A92G A126G | 0.86 |
| A5G A30G A95G | 0.91 |
| C6U A22G U108C | 0.04 |
| A66G C77U A114G | 1.55 |
| A59U A64G A90G A92G | 0.65 |
| A59U U87A A126G | 1.28 |
| A66G U70C U97C A110G U132C | 0.23 |
| U38C A92G U132C | 2.08 |
| A55U A96G U103C | 1.37 |
| U9C A94G A110G | 0.14 |
| A59G A94G A118G | 1.09 |
| U2C A27G U102C | 1.02 |
| A23G A51G A89G | 0.64 |
| A56G U102C A125G | 1.26 |
| A64G A116U U130C | 0.07 |
| U38C U39C A67G | 1.28 |
| A64G A68G U120C U122A U130A | 1.11 |

| Variant | self-cleavage |
| --- | --- |
| U2A C35U A59G U103C | 0.5 |
| A59G U108C U122A | 0.01 |
| A5G A78G U132C U139C | 0.29 |
| A13G U43C A67G U87C | 1.12 |
| A18G A62G A67G A69G U72C U100A | 0.12 |
| A62G U70C G138A | 0.46 |
| U38A A91G C128U U131C | 0.66 |
| A24G U26C U57A A63G | 1.48 |
| U12C G50A A52G A54U A62U | 0.81 |
| U12C A91G A114U A118U | 0.03 |
| A13G A91G A135U | 0.34 |
| G14C A47G A68G A134G | 1.27 |
| A33G U43C A59G U103C | 0.34 |
| U26A G73A U124C | 0.02 |
| U26A U39C A54U A89U A116U | 0.26 |
| U2C A22G A33G A51G A63U A89G A111G A118G U132C | 0 |
| A92G U103C U120C | 0.3 |
| U26C A33G A94U | 1.72 |
| U43C A92G A135U | 0.75 |
| U38C A64G U102A U132C | 0.33 |
| U39C A47G A56G U57G U72G U122C | 0.19 |

| Variant | self-cleavage |
| --- | --- |
| U2C A23G U43A A78C C101U | 0.01 |
| U2C A5U A54G A86U A96G U132C | 1.24 |
| A18U U49C A90U | 1.36 |
| G15C G106A U120A A134G | 0.01 |
| A55G U70C U87C A129G | 0.32 |
| A11G U49C A96C A116G | 0.25 |
| A4G A66G A110G | 0.61 |
| A24G A78U A114G | 0.32 |
| U3C A90G A140G | 0.96 |
| A78U A86G A116G | 0.04 |
| A18U U43C A52G A55G A90G | 0.28 |
| A23G A47G A110G | 0.12 |
| U103C G106A A118U A126G | 0 |
| A18G A52G A59G U102C U124C | 0.58 |
| A51U A89U G99A | 1.17 |
| U9C A18G A23G A36G G44A A114G | 0.5 |
| A23G A47G A125G | 0.49 |
| A5C A96G A116G | 1.29 |
| A22G U37C A47G A62U U102C | 0.35 |
| A59G A64G A66G A78G A86U U108A A135G | 0.02 |
| A56G A62G U70C A86U U120C | 0.14 |

| Variant | self-cleavage |
| --- | --- |
| A68U A82G U132C | 0.87 |
| A18U A64G A118G | 1.74 |
| U12A A94G A114G A118G | 1.09 |
| U19A A55G U100C A116U | 0.47 |
| A11C G29A A59U A69G A110C | 0.23 |
| U49A U70C U108A | 0.01 |
| U2C A86G U127A | 1.57 |
| A111G U120C A140U | 0 |
| C76G A90G C109U | 0.08 |
| A30G A51U A66G | 1.78 |
| A18U U49A U70C C113U | 0.03 |
| C34U A92G A111G | 0.02 |
| G1U A5G A22U A62G | 0.71 |
| A22G A36C A78G U103C U124C | 0.06 |
| A67G A68G A69G | 1.01 |
| U39C A60G A69G U70A U100C | 1.9 |
| A59G A64G A66G U97C | 0.4 |
| A54U A55G A116U | 0.46 |
| A22G C32U A64U A114G A135G | 0.26 |
| U39C A56G C109U U133C | 0.48 |
